In data set [1] the target is CYP 2C8 (Homo sapiens, UniProt P10632). Put plainly: CYP inhibition in human liver microsomes. The following applies: 10 μM. Background: Liver microsomes are a subcellular fraction often used to study metabolism.
The subject of data set [2] is DHEA, allopregnanolone and testosterone. Put plainly: Conversion in downstream steroids, humans (GC/MS-MS). The following applies: 0.2, 0.6 and 2 mg/subject. It is filed as in vivo. As for the experimental part: In all these studies plasma concentrations of steroids were measured by gas chromatography-tandem mass spectrometry (GC/MS-MS).
Data set [3] addresses T1, human CB1 (hCB1) receptor (Homo sapiens, UniProt P21554).
T1 construct: expressed in transfected cells; host or cells: HEK-293
T1 sequence (P21554 whole entry): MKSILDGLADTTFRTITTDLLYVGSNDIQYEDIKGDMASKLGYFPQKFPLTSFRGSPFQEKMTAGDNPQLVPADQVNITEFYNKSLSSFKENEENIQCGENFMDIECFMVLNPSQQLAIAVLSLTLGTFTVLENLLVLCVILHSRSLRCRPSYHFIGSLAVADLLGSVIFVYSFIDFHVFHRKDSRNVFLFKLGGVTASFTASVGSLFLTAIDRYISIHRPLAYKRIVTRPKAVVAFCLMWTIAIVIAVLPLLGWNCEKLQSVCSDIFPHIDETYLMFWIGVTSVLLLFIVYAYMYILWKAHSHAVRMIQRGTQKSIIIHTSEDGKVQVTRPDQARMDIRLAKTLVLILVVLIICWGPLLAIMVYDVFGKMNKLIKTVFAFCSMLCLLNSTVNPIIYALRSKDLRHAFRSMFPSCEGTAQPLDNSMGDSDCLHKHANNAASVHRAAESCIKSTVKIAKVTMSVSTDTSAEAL
Put plainly: THC-induced decrease in cellular respiration, HEK-293 cells transiently transfected with hCB1. It is filed as cell-based. The settings on record: THC 1 μM; oxygen consumption rate; HEK-293 transiently hCB1. As for the experimental part: After 15 min of incubation, THC (0, 1 μM, dissolved in EtOH 0.0034%) was added in the culture dishes for 30 minutes.
Cellular respiration was measured in a calibrated oxygraph equipped with a Clark electrode. Oxygen consumption (OC) rate was used to measure cellular respiration. […] 10 independent experiments were performed to obtain a n=10 per experimental condition.

Data set [4] is described as follows: Pharmacokinetics in humans (healthy volunteers). The following applies: single oral 0.2, 0.6, 2 mg/subject.
Data set [5] relates to CYP2B6. Put plainly: CYP induction (mRNA level). Type of data set: in vitro ADME. The settings on record: 10 nM, 100 nM and 1 μM.
Data set [6] relates to spontaneous behaviour in mice. Put plainly: Spontaneous behaviour in the home cage (24 h video analysis). The settings on record: 15 mg/kg, 24 hours after administration.
Data set [7] has as its system THC-induced impairment of reality testing. Put plainly: THC-induced impairment of reality testing (mediated aversion). Type of data set: in vivo. The following applies: per os 3 h before THC 1 mg/kg ip; mice. The protocol: The realty-testing consists in four phases with different pairings (a pairing refers to the association of two stimuli at a time): habituation (3 days), preconditioning (6 pairings odor/taste, 12 days), conditioning (i.e. 3 pairings odor/injection of an agent inducing malaise, LiCl, 6 days), recovery day (1 day with water) and finally the tests (mediated aversion and direct aversion tests).
Mice were water deprived for 24 hours before starting the habituation that consisted in 1-hour access to water per day during 3 days in order to get used to receive liquid every day for 1 hour, and thus reach a constant consumption over the protocol. This was followed by the preconditioning phase in which the mice were given 1-hour access per day to a mixed solution (O1T1) with one odor (either almond or banana, O1) and one taste (either maltodextrine or sucrose, T1) in water. On day 2, mice received 1-hour access to the solution with the odor and taste not given the previous day (02T2). After 6 pairings of O1T1 and O2T2 (12 days), the conditioning phase was started.
At the first day of conditioning, mice were given 1-hour access to odorized water (O1) directly followed by intraperitoneal injection of saline. The following day, mice were given access to the second odorized water (O2) directly followed by an intraperitoneal injection of LiCl (0.3 M) at a volume of 10 ml/kg to create gastric discomfort. After 3 pairings of O1/saline and O2/LiCl (6 days), mice were given a recovery day with 1-hour access to water.
The next day, mediated aversion was assessed by performing a two-choice test with two bottles of water containing one of the two tastes: the taste paired with the odor associated with LiCl injection (T2) called C+; or the taste paired with the other odor that was associated with the saline injection (T1) called C-. […]

Data set [8] addresses CYP 2C19 (Homo sapiens, UniProt P33261). Put plainly: CYP inhibition in human liver microsomes. The settings on record: 10 μM.
Data set [9] has as its target OATP1B3 (Homo sapiens, UniProt Q9NPD5). Put plainly: Cellular transporter inhibition, CHO cells (fluorometry). The settings on record: 10 μM.
The test system of data set [10] is anxiety- and depression-related behaviors in mice. Put plainly: Repeated administration: anxiety- and depression-related behaviors (elevated plus maze, sucrose preference test). The settings on record: 28 days once a day; 3pMBP 0.05, 5, 15 mg/kg per os; Rimo 10 mg/kg ip. Type of data set: in vivo. As for the experimental part:
The EPM apparatus was made of four elevated arms arranged in a cross-like disposition, with two opposite arms being enclosed by walls and the two other arms being open. For all the experiments, after receiving the appropriate treatment mice were placed in the center of the EPM and let free to explore the maze for 5 minutes. The time spent and the number of entries into the open arms and closed arms were measured by an automatic videotracking system. A decrease in the percentages of visits and/or of the time spent in open arms is considered an index of increase in anxiety levels.
The sucrose preference test was performed in the home cage of the mice. Two identical bottles, one containing water and the other one containing a 2%-sucrose solution were placed in the hopper of each home cage. […] The volumes of water and of sucrose solutions drank by the mice were measured over two 1.30 h intervals, the first between 7.00 pm and 8.30 pm and the second between 8.30 pm and 10.00 pm. At each time point, the bottles were weighed and the intake volume was calculated by subtracting the initial bottle weight to the final bottle weight.
At day 26, mice were subjected to the EPM and at day 28 to the sucrose preference test.

Data set [11] concerns healthy volunteers. Put plainly: Mood, cognition and suicidality in healthy volunteers (Bond & Lader VAS, ARCI 49, POMS 65, C-SSRS). The following applies: single 0.2, 0.6, 2 mg/subject; repeated 0.6 mg/subject once a day for 7 days.
The target of data set [12] is CYP 2D6 (Homo sapiens, UniProt P10635). Put plainly: CYP inhibition in human liver microsomes. The settings on record: 10 μM.
CYP 2D6, sequence (P10635 whole entry): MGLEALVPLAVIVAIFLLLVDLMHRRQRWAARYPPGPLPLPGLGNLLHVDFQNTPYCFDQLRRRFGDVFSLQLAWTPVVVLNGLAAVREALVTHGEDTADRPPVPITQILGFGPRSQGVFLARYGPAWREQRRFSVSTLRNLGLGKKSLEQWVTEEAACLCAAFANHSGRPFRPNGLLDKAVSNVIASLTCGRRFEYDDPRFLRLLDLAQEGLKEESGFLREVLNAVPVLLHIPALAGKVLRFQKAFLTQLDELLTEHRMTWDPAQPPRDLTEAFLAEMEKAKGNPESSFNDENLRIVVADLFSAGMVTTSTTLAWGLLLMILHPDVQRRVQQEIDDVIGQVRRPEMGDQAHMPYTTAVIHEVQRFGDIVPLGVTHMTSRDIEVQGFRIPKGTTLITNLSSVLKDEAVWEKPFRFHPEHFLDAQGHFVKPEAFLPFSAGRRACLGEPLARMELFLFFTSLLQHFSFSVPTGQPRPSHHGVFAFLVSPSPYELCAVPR
The target in data set [13] is BCRP (Homo sapiens, UniProt Q9UNQ0). Put plainly: Cellular transporter inhibition, CHO cells (fluorometry). The settings on record: 10 μM.
BCRP, sequence (Q9UNQ0 whole entry): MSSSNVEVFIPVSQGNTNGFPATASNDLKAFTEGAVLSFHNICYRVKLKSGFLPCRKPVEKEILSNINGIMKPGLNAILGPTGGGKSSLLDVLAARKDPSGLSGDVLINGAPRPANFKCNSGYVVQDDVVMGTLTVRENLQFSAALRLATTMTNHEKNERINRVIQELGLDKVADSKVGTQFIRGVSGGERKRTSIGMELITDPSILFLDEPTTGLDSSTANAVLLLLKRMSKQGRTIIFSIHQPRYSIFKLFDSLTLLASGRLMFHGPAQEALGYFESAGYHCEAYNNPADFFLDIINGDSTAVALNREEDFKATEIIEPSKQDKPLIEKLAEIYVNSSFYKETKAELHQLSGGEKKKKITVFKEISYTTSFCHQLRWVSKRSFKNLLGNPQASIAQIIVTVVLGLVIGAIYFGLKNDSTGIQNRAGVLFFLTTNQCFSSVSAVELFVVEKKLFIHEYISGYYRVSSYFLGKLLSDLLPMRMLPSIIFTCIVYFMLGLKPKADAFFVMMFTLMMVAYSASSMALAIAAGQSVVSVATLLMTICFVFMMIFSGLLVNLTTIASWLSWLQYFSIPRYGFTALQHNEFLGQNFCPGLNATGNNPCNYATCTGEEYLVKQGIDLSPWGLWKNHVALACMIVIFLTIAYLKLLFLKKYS
For data set [14], the system named is CYP 3A. Put plainly: CYP inhibition in human liver microsomes. The settings on record: 10 μM.
Data set [15] concerns CYP 1A. Put plainly: CYP inhibition in human liver microsomes. The settings on record: 10 μM.

This note sets out measurements from patent US12447159B2 (AELIS FARMA, priority 2018, dated 2025).

Each structure is given as a SMILES string.

A word on the % inhibition: it is the relative decrease from the control value, in per cent. High values mean strong suppression, low ones little suppression.

OATP1B3, sequence (Q9NPD5 whole entry): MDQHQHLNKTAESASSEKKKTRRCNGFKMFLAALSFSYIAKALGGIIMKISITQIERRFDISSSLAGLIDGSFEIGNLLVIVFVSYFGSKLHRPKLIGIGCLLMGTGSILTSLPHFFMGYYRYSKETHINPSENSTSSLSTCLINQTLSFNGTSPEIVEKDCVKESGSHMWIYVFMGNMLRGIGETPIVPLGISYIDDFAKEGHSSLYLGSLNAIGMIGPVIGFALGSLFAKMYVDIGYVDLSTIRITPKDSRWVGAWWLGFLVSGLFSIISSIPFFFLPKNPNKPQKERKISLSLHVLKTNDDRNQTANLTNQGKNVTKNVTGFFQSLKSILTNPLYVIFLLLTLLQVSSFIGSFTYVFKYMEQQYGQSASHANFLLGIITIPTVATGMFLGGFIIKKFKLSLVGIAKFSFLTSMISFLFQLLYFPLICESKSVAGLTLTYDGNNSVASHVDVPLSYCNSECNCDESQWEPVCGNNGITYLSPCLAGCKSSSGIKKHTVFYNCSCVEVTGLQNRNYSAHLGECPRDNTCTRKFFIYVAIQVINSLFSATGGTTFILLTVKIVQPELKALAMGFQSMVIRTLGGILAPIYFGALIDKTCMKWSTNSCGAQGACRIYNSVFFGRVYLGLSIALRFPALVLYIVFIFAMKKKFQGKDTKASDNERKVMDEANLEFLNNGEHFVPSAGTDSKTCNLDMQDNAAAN
CYP 2C19, sequence (P33261 whole entry): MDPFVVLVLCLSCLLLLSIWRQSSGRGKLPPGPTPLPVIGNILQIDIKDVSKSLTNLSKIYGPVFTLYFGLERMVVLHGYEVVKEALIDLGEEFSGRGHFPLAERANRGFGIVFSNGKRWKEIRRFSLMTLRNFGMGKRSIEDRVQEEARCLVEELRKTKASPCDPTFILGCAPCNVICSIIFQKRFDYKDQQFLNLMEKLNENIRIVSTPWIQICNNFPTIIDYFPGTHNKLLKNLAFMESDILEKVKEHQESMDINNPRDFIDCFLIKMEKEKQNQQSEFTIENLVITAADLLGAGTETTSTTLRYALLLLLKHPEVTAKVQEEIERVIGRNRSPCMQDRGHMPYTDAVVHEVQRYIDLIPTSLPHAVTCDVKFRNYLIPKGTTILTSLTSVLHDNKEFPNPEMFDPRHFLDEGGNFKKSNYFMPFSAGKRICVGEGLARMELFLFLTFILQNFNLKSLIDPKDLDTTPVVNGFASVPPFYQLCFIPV
CYP 2C8, sequence (P10632 whole entry): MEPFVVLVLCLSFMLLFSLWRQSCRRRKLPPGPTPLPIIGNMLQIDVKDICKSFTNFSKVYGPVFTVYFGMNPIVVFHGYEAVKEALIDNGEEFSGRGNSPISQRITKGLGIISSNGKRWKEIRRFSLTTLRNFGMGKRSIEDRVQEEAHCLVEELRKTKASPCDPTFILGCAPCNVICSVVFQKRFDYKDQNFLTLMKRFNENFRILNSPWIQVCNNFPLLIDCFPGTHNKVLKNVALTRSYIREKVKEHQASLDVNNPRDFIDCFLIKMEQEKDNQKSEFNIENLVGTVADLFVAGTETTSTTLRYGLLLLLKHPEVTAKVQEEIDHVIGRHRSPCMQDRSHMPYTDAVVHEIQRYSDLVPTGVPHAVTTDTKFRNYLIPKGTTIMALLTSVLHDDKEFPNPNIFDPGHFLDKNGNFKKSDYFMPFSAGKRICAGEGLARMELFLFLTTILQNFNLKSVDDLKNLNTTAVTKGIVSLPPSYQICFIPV

In the case of `COc1ccc(CO[C@H]2CC[C@@]3(C)C(=CC[C@H]4[C@@H]5CC[C@H](C(C)=O)[C@@]5(C)CC[C@@H]43)C2)cc1` [3pMBP, 3β-(4-methoxybenzyloxy)pregn-5-en-20-one], the “Inhibition of CYP 2C8 activity” value in data set [1] is “no significant inhibition”. The “Changes in active steroids” value in [2] was “no changes in active steroids were observed”. In data set [3], the “% inhibition” value is recorded as 57% and the ID100 was found to be 100 nM. For the same compound, in data set [4], the “Absorption in humans (plasma concentration after oral administration)” value is on record as “good absorption”. Besides, the “Expression of CYP2B6” value in data set [5] was “did not increase the expression”. The “Effects on behaviour per se (spontaneous behaviour in the home cage)” value in [6] is “no detectable effects on behaviour per se”. In addition, in data set [7], the “% inhibition” value amounted to 100%, the ID50 is reported as below 0.015 mg/kg and the ID100 was found to be 0.015 mg/kg. The “Inhibition of CYP 2C19 activity” value in [8] is given as “no significant inhibition”. Also, the “Activity of OATP1B3” value in data set [9] was “did not modify the activity”. In addition, in [10], the “Percentage of time spent in the open arms of the elevated plus maze” value is listed as “has no effect on the time spent in open arms”, the “Percentage of visits in the open arms of the elevated plus maze” value is reported as “has no effect on the visits in open arms” and the “Sucrose intake (sucrose preference test)” value is given as “has no effect on sucrose intake”. Also, in [11], the “General behavior of the subject” value was “no modification in the general behavior” and the “Psychometric tests (Bond & Lader VAS, ARCI 49, POMS 65, C-SSRS)” value is “no modification for any of the psychometric tests performed”. Moreover, the “Inhibition of CYP 2D6 activity” value in [12] is on record as “no significant inhibition”. Further, the “Activity of BCRP” value in data set [13] is on record as “did not modify the activity”. In addition, the “Inhibition of CYP 3A activity” value in [14] was “no significant inhibition”. Moreover, the “Inhibition of CYP 1A activity” value in [15] is recorded as “no significant inhibition”.
